These results are taken from PubChem BioAssay AID1259407 (Chemical Carcinogenesis Research Information System (CCRIS), 2018).

The data set concerns CCRIS mutagenicity, Ames/micronucleus/aberration tests. In words: CCRIS mutagenicity studies.
[1] abbreviates: Test System: AMES SALMONELLA TYPHIMURIUM, Strain/Indicator: TA100, Metabolic Activation: NONE, Method: PREINCUBATION
[2] abbreviates: End Point: IN VITRO CHROMOSOMAL ABERRATIONS, Test System: CHL CELLS, Metabolic Activation: NONE.
Where [3] appears, read: Test System: MOUSE LYMPHOMA, Strain/Indicator: L5178Y (TK+/TK-), Metabolic Activation: NONE, Method: SUSPENSION/PLATE.
Setting [4] is: End Point: In vitro chromosomal aberrations, Test System: Chinese hamster lung (CHL/IU) cells, Metabolic Activation: None.

Structures are written as SMILES. Entries after “also recorded” stand apart in the source; their conditions may differ. Some entries of the source have several records that differ or are many. Only these are listed. The rule behind the calls is not given here. An entry can have further records. Values given together differ, and nothing given here explains why; some may be repeats, others may stem from another dose, organism or construct than stated. A tag in brackets gives the origin of a value. The letters are not those of the source and start again with each entry. Counts like (3×) count equal records among those shown.

On to `CSc1cc(SC)c(N)c(C)c1N`, for which the mutagenic call (Test System: AMES SALMONELLA TYPHIMURIUM, Strain/Indicator: TA100, Metabolic Activation: RAT, LIVER, S-9, AROCLOR 1254, Method: STANDARD PLATE) is “active; positive [study A] and inactive; negative [study B]”.

For the compound `CC(C)Br`, the mutagenic call was “active; positive [study A] and inactive; negative [study B]” under setting [1]; “active; positive and inactive; negative” (Test System: AMES SALMONELLA TYPHIMURIUM, Strain/Indicator: TA100, Metabolic Activation: RAT LIVER S-9, PHENOBARBITAL AND BETA-NAPHTHOFLAVONE, Method: PREINCUBATION); “active; positive and inactive; negative” (Test System: E.COLI, Strain/Indicator: WP2UVRA, Metabolic Activation: NONE, Method: PREINCUBATION); “inactive; negative and active; positive” (Test System: E.COLI, Strain/Indicator: WP2UVRA, Metabolic Activation: RAT LIVER S-9, PHENOBARBITAL AND BETA-NAPHTHOFLAVONE, Method: PREINCUBATION).

In the case of `[Cl][Hg][Cl]`, for the setting “End Point: IN VITRO CHROMOSOMAL ABERRATIONS, Test System: HUMAN PERIPHERAL LYMPHOCYTES, Metabolic Activation: NONE”, the mutagenic call was “active; positive (structural changes); statistically significant at 0.1 and 1000 ug leve; also recorded: active; positive (structural changes)”.

In the case of `Cc1cc(-c2ccc(N=C=O)c(C)c2)ccc1N=C=O`, under setting [2], the mutagenic call is “inactive; negative; authors report equivocal results for structural changes at 0.4 mg/ml f; also recorded: inactive; negative; authors report equivocal results for ploidy changes at the highest dos”.

Regarding `CN=C=O`, the mutagenic call by setting is: under setting [1], “inactive; negative [study A] and active; positive [study B]”; (Test System: AMES SALMONELLA TYPHIMURIUM, Strain/Indicator: TA104, Metabolic Activation: NONE, Method: PREINCUBATION) “inactive; negative [study A] and active; positive [study B]”; under setting [3], “active; positive [study A]; also recorded: active; positive. reevaluation of results: positive [study B]”.

For `O=C(Br)CBr`, the mutagenic call was “active; positive (structural changes) (2×) and inactive; negative” under setting [2]; “inactive; negative and active; positive” (Test System: E. COLI, Strain/Indicator: WP2UVRA/PKM101, Metabolic Activation: NONE, Method: PREINCUBATION).

Take `CCOP(=S)(OCC)SCCSCC`: the mutagenic call (Test System: Chinese hamster ovary cells, Strain/Indicator: CHO-K1-BH4 (HGPRT), Metabolic Activation: None, Method: Cells exposed for 5 hr) was “inactive; negative. (test material partially doluble at highest dose.); also recorded: inactive; negative. (ca dept of pesticide regulation reviewer described as equivocal. muta” and the mutagenic call (Test System: Chinese hamster ovary cells, Strain/Indicator: CHO-K1-BH4 (HGPRT), Metabolic Activation: S-9, Method: Cells exposed for 5 hr) is “inactive; negative. (test material partially doluble at highest dose.); also recorded: inactive; negative. (ca dept of pesticide regulation reviewer described as equivocal. muta”.

For the compound `C=Cc1ccccn1`, the mutagenic call under setting [4] was “active; positive (structural changes). toxicity at 0.12 mg/ml; also recorded: active; positive (structural changes and ploidy). weak structural change response is not; also recorded: active; positive (structural changes). weak ploidy response is not dose related”; the mutagenic call (Test System: E. coli, Strain/Indicator: WP2uvrA/pKM101, Metabolic Activation: None, Method: Preincubation) was “active; positive and inactive; negative”.

Regarding `BrCCBr`, the mutagenic call under setting [2] is “active; positive (structural changes) (2×); also recorded: inactive; negative; authors report equivocal results for structural changes at 0.32 mg/ml”; the mutagenic call (Test System: AMES SALMONELLA TYPHIMURIUM, Strain/Indicator: TA100, Metabolic Activation: NONE, Method: STANDARD PLATE) was “active; positive [study A] and active; positive [study B] and inactive; negative [study C]”; the mutagenic call (Test System: E. COLI, Strain/Indicator: WP2 UVRA, Metabolic Activation: HAMSTER, LIVER, S-9, AROCLOR 1254, Method: PREINCUBATION) was “active; positive (2×) and inactive; negative”; the mutagenic call (Test System: E. COLI, Strain/Indicator: WP2 UVRA, Metabolic Activation: HAMSTER, LIVER, S-9, Method: PREINCUBATION) is “active; positive and inactive; negative”; the mutagenic call (Test System: E. COLI, Strain/Indicator: WP2 UVRA, Metabolic Activation: MOUSE, LIVER, S-9, AROCLOR 1254, Method: PREINCUBATION) is “active; positive and inactive; negative”; the mutagenic call (Test System: E. COLI, Strain/Indicator: WP2 UVRA, Metabolic Activation: MOUSE, LIVER, S-9, Method: PREINCUBATION) was “active; positive and inactive; negative”. The mutagenic call by setting is: (Test System: E. COLI, Strain/Indicator: WP2 UVRA, Metabolic Activation: NONE, Method: PREINCUBATION) “active; positive and inactive; negative (2×)”; (Test System: E. COLI, Strain/Indicator: WP2 UVRA, Metabolic Activation: RAT, LIVER, S-9, Method: PREINCUBATION) “inactive; negative and active; positive”.

Take `Oc1cccc2cccnc12`: the mutagenic call under setting [2] was “inactive; negative and active; positive (structural changes)”.

For the compound `ClCC(Cl)CCl`, the mutagenic call (Test System: AMES SALMONELLA TYPHIMURIUM, Strain/Indicator: TA98, Metabolic Activation: RAT, LIVER, S-9, AROCLOR 1254 (10%), Method: PREINCUBATION) was “inactive; negative and active; positive”.

On to `O=[N+]([O-])c1cc(Cl)ccc1Cl`, for which the mutagenic call by setting is: under setting [2], “inactive; negative; authors report equivocal results for ploidy changes at the highest dos; also recorded: inactive; negative”; under setting [1], “inactive; negative [study A] and active; positive [study B]”.

Consider `CN(C)P(=O)(N(C)C)N(C)C`, for which the mutagenic call under setting [3] is “inactive; negative [study A] and active; positive [study B]”.

Turning to `NC(=S)NNC(N)=S`, where the note is “End Point: IN VITRO CHROMOSOMAL ABERRATIONS, Test System: CHINESE HAMSTER OVARY CELLS, Metabolic Activation: NONE”, the mutagenic call was “active; positive and inactive; negative”.

Take `[Si]`: the mutagenic call (Test System: AMES SALMONELLA TYPHIMURIUM, Strain/Indicator: TA98, Metabolic Activation: NONE, Method: GAS EXPOSURE) is “active; positive [study A] and inactive; negative [study B] and active; positive [study B]”; the mutagenic call (Test System: AMES SALMONELLA TYPHIMURIUM, Strain/Indicator: TA1537, Metabolic Activation: NONE, Method: GAS EXPOSURE) is “active; positive [study A] and inactive; negative [study B]”; the mutagenic call (Test System: AMES SALMONELLA TYPHIMURIUM, Strain/Indicator: TA1537, Metabolic Activation: RAT LIVER S-9, PHENOBARBITAL AND BETA-NAPHTHOFLAVONE, Method: GAS EXPOSURE) is “active; positive and inactive; negative”.

Turning to `CCS(=O)(=O)CCn1c([N+](=O)[O-])cnc1C`, the mutagenic call runs as follows: (Test System: AMES SALMONELLA TYPHIMURIUM, Strain/Indicator: TA98, Metabolic Activation: NONE, Method: STANDARD PLATE) “inactive; negative and active; positive”; (Test System: AMES SALMONELLA TYPHIMURIUM, Strain/Indicator: TA100(NR), Metabolic Activation: NONE, Method: STANDARD PLATE) “inactive; negative and active; positive”.

For `c1cnc2c(c1)ccc1c2ccc2cccnc21`, where the note is “Test System: AMES SALMONELLA TYPHIMURIUM, Strain/Indicator: TA100, Metabolic Activation: BACULOVIRUS-TRANSFECTED INSECT CELL MICROSOMES, Method: PREINCUBATION”, the mutagenic call is “inactive; negative for strain expressing cyp2e1; also recorded: active; positive for strain expressing cyp1a2 and cyp2a6”.

`O=[N+]([O-])c1cccc(O)c1`: the mutagenic call reads like this: (Test System: AMES SALMONELLA TYPHIMURIUM, Strain/Indicator: TA98, Metabolic Activation: NONE, Method: PREINCUBATION) “active; positive [study A] and inactive; negative [study B] and active; positive [study C]”; under setting [1], “active; positive [study A] and inactive; negative [study B] and inactive; negative [study C]”.

In the case of `ClC(Cl)(Cl)c1nc(-c2ccc3c(c2)OCO3)nc(C(Cl)(Cl)Cl)n1`, the mutagenic call under setting [4] is “active; positive (structural changes and ploidy) (2×); also recorded: active; positive (structural changes and ploidy). ploidy response weak and not dose rela”.

As to `CC(=O)[O-].CC(=O)[O-].O.O.O.O.[Co+2]`, the mutagenic call was “active; positive (2×) and active; positive (two experiments)” (Test System: Ames Salmonella typhimurium, Strain/Indicator: TA98, Metabolic Activation: None, Method: Preincubation); “active; positive and inactive; negative and active; positive (two experiments)” (Test System: Ames Salmonella typhimurium, Strain/Indicator: TA100, Metabolic Activation: None, Method: Preincubation); “active; positive (2×) and active; positive (two experiments)” (Test System: Ames Salmonella typhimurium, Strain/Indicator: TA1537, Metabolic Activation: None, Method: Preincubation).

In the case of `O=Cc1ccccc1`, the mutagenic call under setting [4] is “active; positive (structural changes and ploidy) (2×); also recorded: active; positive (structural changes)”.

Consider `ClC(Cl)=C(Cl)Cl`, for which the mutagenic call runs as follows: (Test System: AMES SALMONELLA TYPHIMURIUM, Strain/Indicator: TA100, Metabolic Activation: NONE, Method: VAPOR CHAMBER) “active; positive (2×) and inactive; negative”; (Test System: AMES SALMONELLA TYPHIMURIUM, Strain/Indicator: TA100, Metabolic Activation: RAT, LIVER, S-9, AROCLOR 1254, Method: VAPOR CHAMBER) “active; positive (2×) and inactive; negative”; (Test System: AMES SALMONELLA TYPHIMURIUM, Strain/Indicator: TA1535, Metabolic Activation: NONE, Method: VAPOR CHAMBER) “active; positive (2×) and inactive; negative”; (Test System: AMES SALMONELLA TYPHIMURIUM, Strain/Indicator: TA1535, Metabolic Activation: RAT, LIVER, S-9, AROCLOR 1254, Method: VAPOR CHAMBER) “active; positive (2×) and inactive; negative”.
